# The RNAGym collection of RNA variant scans (doi:10.7554/elife.90254)
# Read counts are not given, so values of variants with three or more changes are uncertain.
# B1: OR4K15 (parent)
# chain: GUUAACGGUCAUAGGCCAUGGAAACUAGGAGCACCAUUUCGCUGCCAGUGAAGAAAUGAACAAAGAAAAUCUGGGCCAGGCAGGCAUCAAAAGAAAUAGUCUUGCGCUCAACCAGAAAGUCUGUAAUCAUUUUAAGGGUA
# Variants of: B1
# Experiment: self-cleavage, relative activity (ratio to wild type); higher = more cleavage; in vitro, sequencing; the parent is a self-cleaving ribozyme
row,Variant,self-cleavage
1,A23G A36U A60G A82G,0.38
2,A23G A111U U132C,0.08
3,A23G U49C A63G G138A,1.57
4,A23G U87C A95G U120C,0.3
5,A23U A78U U103C,0.17
6,A23G U37C A47G A56G,0.92
7,A24C A30G A63G,1.15
8,A22U C32U U102C,1.14
9,A22U A96G A116G,0.16
10,A23G U49C U87C U122C,0.18
11,A23G U49G A95G U100C U102A U108C A117G A129C G137A,0
12,A23G A52G A95G A114G G137A,1.02
13,A23G A47G U122C,0.61
14,A24C U38C A60G,1.27
15,A23G A66G A116U A129G,0.21
16,A23G A24G U43C A55G A86G G104U A129G,0.03
17,A23G U43A U132C,2.38
18,A22U G50A A64C,1.18
19,A23G U37C U49C G73A,0.11
20,A23G A96G U124G,0.41
21,A23G U26C A98G,0.69
22,A23G A54G A96G U130C,0
23,A23G U38A A116G,0.94
24,A23C A96U U130C,1.01

row,Variant,self-cleavage
1,A23U A52G U57A,1.46
2,A23U U57C A92G,0.86
3,A23G A54G A56G,1.42
4,A23U U49A A55U,0.44
5,A23U A69G A90G,1.12
6,A23U U72C A94G,0.32
7,A23G A47G U102C A116G,1.15
8,A23G A36G U49C,0.2
9,A23G A51G A68G A114G A126G,0.05
10,A23U A68G A117G,2.48
11,A23U U37C G80U A134U,0.23
12,A23G U87C U131C,1.25
13,A24C G84A U108C,0
14,A23G G53U U108C,0.03
15,A23G A55U A67C A92G,1.42
16,A23C G65A U102C,1.29
17,A23C U43A A68G,1.33
18,A23U A96G A114G,0.07
19,A23G A69G A89G A118G U122C,0.11
20,A23G A60G A118U,0.8
21,A23G A33G U100C U122A,1.32
22,A22U U87A C113U U130C,0.04
23,A23G A78C G106A C113U A116G G137A,0
24,A23G U49C A94G A126G,0.2

row,Variant,self-cleavage
1,A23U A82U A98U,0.5
2,A22U C34A U43A A47G,1
3,A23G A67G G123A A126G,1.02
4,A23G A51U U72A U108C A126G,0.01
5,A23G U49A A96G A126G,1.13
6,A23G A51G A56U A126U U139C,0.71
7,A23G U39A A118G,0.81
8,A23G A56G A96G,0.87
9,A23U A56G A118G,1
10,A23G A63G U100C U132A,1.87
11,A23C A78U A91G,0.17
12,A24C A62U U100A C121U,1.49
13,A23G A89G A94G,1.41
14,A23G A91G A118G U120C U130C U139C,0.17
15,A23G A59G A110G,0.21
16,A24C U37C U122G,2.45
17,A23G A111G U120C U131C,0
18,A23G A27U A51G U127C A129U,0.83
19,A22U U49C A117G,1.9
20,A23G A63G U97A A111U,0.21
21,A23G A54G A69G A91G U100A G106A,0.05
22,A23G A24G A63G,0.78
23,A23G A30G A111G,0.09
24,A23G A94G U108A A135G,0.05

row,Variant,self-cleavage
1,A23U U72C U97A A117G,0.29
2,A23G A52G A68G G119U A126U,0.89
3,A23G A33U U108C,0.04
4,A23G A63G A68G U122A,1.02
5,A23G U26C U120C U130C U132C,0.71
6,A23G A68G G80A U127C,0.01
7,A23G A27G A62G A78U U87A A135G,0.13
8,A23G A68G U70C,0.65
9,A23G C42U A82U U108C U122G,0.01
10,A23G C40U A125G A129C,0.11
11,A23G U39C G75U,0.18
12,A23G A56G A114U,0.04
13,A24C U43C A60G,0.94
14,A23G U37C A60G A78U A116U,0.03
15,A23G U70C A116U,0.19
16,A23G A63G U97C A114G,0.11
17,A22U U43C U120C,0.28
18,A23G A30U A33G U38C G93A,1.32
19,A24C C34U U97C,0.71
20,A23G A68G A91G A125G,0.55
21,A24C A67G U72G A111G,0
22,A22U A64U U124C,0.78
23,A23G A68U A95G C105G A116U U130C,0.02
24,A23G A67U G75A,0.04

row,Variant,self-cleavage
1,A23G A36G G48A A68G A86G,0.87
2,A23U A55G A67G,2.06
3,A23G A66G U70G A90U A92G U97C,0.67
4,A23G A59U A114U A126G,0.02
5,A22U A126G U130C,0.65
6,A23G A82U A92G A111G,0.05
7,A23U A30C A54G,1.39
8,A23G A78U U87A A114U A117G U130C,0.01
9,A23G A55G A86G,0.34
10,A23U A68G U70A,1.09
11,A22U A62G A111G,0.01
12,A23G G48A A51G A63G A117G U120A A140G,0.23
13,A23G A60G A82G U108C U130C,0.01
14,A23U A27G A33C A47G A60G A66G A89G U120C,0.43
15,A23G A52U U108C,0.07
16,A23U A90G G115A,0.02
17,A23G A55U U120C,0.67
18,A24C U38C A62G U108C,0.02
19,A23G U38C A91G,0.53
20,A23C A51G U102C U124G,1.62
21,A24C A117U A126G,0.66
22,A22U A92G U130C,1.03
23,A23C A33U A67G U108C,0.05
24,A23U A82U U97C,0.1

row,Variant,self-cleavage
1,A23G A66G U108C,0.02
2,A22U C77U A96G,2.55
3,A23G U39A A64G,0.7
4,A23G U26A A86G A92G U127A,1.61
5,A23G A56G U87C C121A,2.54
6,A23G A33G C46U U108C A126G,0
7,A24C U37C U43A C107A,0.04
8,A23U A62G A68G,0.98
9,A22U U38C U43C A55G,1.87
10,A23G U72C U103C G104U,0.02
11,A23U A69G U87C A95G U108A,0.03
12,A23G A67G A82G,0.44
13,A23G A92U U100C,1
14,A23G A24U U39A U57C A64G A67G U72A A94G,0.12
15,A23G U43C A56G U127C,0.45
16,A23U A54G A68G U122C,0.34
17,A23G A60G G74A,0.17
18,A23G A86G A96U U102C,1.88
19,A23G A47G U102C,1.18
20,A23G A54G A110G,0.14
21,A23G U72C A78G A92G,0.2
22,A23G C81U U87C U100C,0.62
23,A23G U37C A60G A117G A126G,2.03
24,A23G A62G U131C,0.49

row,Variant,self-cleavage
1,A23G A24G A30G A78C U97C A117G U139A,0.36
2,A24C A30G U38C A54C A95G U127C,1.49
3,A23G A30G C61U,0.61
4,A23C A51G A52G A94G A96G U108C,0.03
5,A23G U26C A56G,0.47
6,A22U U39C U132C,1.75
7,A23G U37C C40A A94G C121A,1.11
8,A23U U43C A91G,1.44
9,A22U A110G A111G,0.02
10,A23U U37A A52U A60G A69U A98G,1.19
11,A23G A68G A135U U139C,0.88
12,A23G A54G A78U U108C,0.04
13,A24C A55G A90G G123A,0.49
14,A22U A60U A134U,1.56
15,A23G A63G A68C A82U U131C,0.28
16,A23G A78U U103C,0.11
17,A23G U43G A92G U103G,0.07
18,A23G G44U A55G A78G A95G U122C,0.06
19,A22U G29U A95G,2.07
20,A23G A24G U124C A134G,0.74
21,A23G A78G A125G,0.1
22,A23U A62G U87C A116G U124A,0.27
23,A23U A36G U49C A56G G73A A78U A118G,0.1
